Laboratory results taken from patent US8304419B2, “Chemical compounds” (priority 2007, dated 2012).
Structures can show the parent of a compound that is named as a salt.

How the values were obtained:
Assay in all cases: microbe, parasite or virus in culture
[1] = tested on: HIV-1 K103N RT mutant; settings: Human immunodeficiency virus 1, HeLa, read-out: IC50 against K103N, HeLa cell assay
[2] = tested on: HIV-1 V106A RT mutant; settings: Human immunodeficiency virus 1, HeLa, read-out: IC50 against V106A, HeLa cell assay
[3] = tested on: HIV-1 Y181C RT mutant; settings: Human immunodeficiency virus 1, HeLa, read-out: IC50 against Y181C, HeLa cell assay
[4] = tested on: HIV-1 Y188L RT mutant; settings: Human immunodeficiency virus 1, HeLa, read-out: IC50 against Y188L

| SMILES | IC50 [1] | IC50 [2] | IC50 [3] | IC50 [4] |
| --- | --- | --- | --- | --- |
| Cc1nc(Cl)c(C(=O)NCc2ccc(Cl)c(Oc3cc(C#N)cc(C(F)F)c3)c2F)[nH]1 [Example 300, 4-chloro-N-[(4-chloro-3-{[3-cyano-5-(difluoromethyl)phenyl]oxy}-2-fluorophenyl)methyl]-2-methyl-1H-imidazole-5-carboxamide trifluoroacetate] | < 10 nM | < 10 nM | < 10 nM | < 10 nM |
| Cc1nc(Cl)c(C(=O)NCc2ccc(Cl)c(Oc3cc(Cl)cc(C#N)c3Cl)c2F)[nH]1 [Example 306, 4-chloro-N-({4-chloro-3-[(2,5-dichloro-3-cyanophenyl)oxy]-2-fluorophenyl}methyl)-2-methyl-1H-imidazole-5-carboxamide trifluoroacetate] | < 10 nM | < 10 nM | < 10 nM | < 10 nM |
| N#Cc1cc(Cl)cc(Oc2c(Br)ccc(CNC(=O)c3[nH]c(CO)nc3Cl)c2F)c1 [Example 241, N-({4-bromo-3-[(3-chloro-5-cyanophenyl)oxy]-2-fluorophenyl}methyl)-4-chloro-2-(hydroxymethyl)-1H-imidazole-5-carboxamide] | < 10 nM | < 10 nM | < 10 nM | < 10 nM |
| Cc1nc(Cl)c(C(=O)NCc2ccc(Cl)c(Oc3cc(C#N)cc(C4CC4)n3)c2F)[nH]1 [Example 273, 4-Chloro-N-({4-chloro-3-[(4-cyano-6-cyclopropyl-2-pyridinyl)oxy]-2-fluorophenyl}methyl)-2-methyl-1H-imidazole-5-carboxamide] | < 10 nM | < 10 nM | < 10 nM | < 10 nM |
| N#Cc1cc(CC2CC2)cc(Oc2c(Cl)ccc(CNC(=O)c3[nH]cnc3Cl)c2F)c1 [Example 157, 4-chloro-N-[(4-chloro-3-{[3-cyano-5-(cyclopropylmethyl)phenyl]oxy}-2-fluorophenyl)methyl]-1H-imidazole-5-carboxamide] | < 10 nM | < 10 nM | < 10 nM | < 10 nM |
| N#Cc1cc(Oc2c(Cl)ccc(CNC(=O)c3[nH]c(N)nc3Cl)c2F)cc(C2CC2)c1 [Example 307, 2-amino-4-chloro-N-({4-chloro-3-[(3-cyano-5-cyclopropylphenyl)oxy]-2-fluorophenyl}methyl)-1H-imidazole-5-carboxamide trifluoroacetate] | < 10 nM | < 10 nM | < 10 nM | < 10 nM |
| C[C@@H](O)C#Cc1cc(Cl)cc(Oc2c(Cl)ccc(CNC(=O)c3[nH]cnc3Cl)c2F)c1 [Example 319, 4-chloro-N-{[4-chloro-3-({3-chloro-5-[(3R)-3-hydroxy-1-butyn-1-yl]phenyl}oxy)-2-fluorophenyl]methyl}-1H-imidazole-5-carboxamide] | < 10 nM | < 10 nM | < 10 nM | < 10 nM |
| CCc1cc(C#N)cc(Oc2c(Cl)ccc(CNC(=O)c3[nH]cnc3Cl)c2F)c1 [Example 148, 4-chloro-N-({4-chloro-3-[(3-cyano-5-ethylphenyl)oxy]-2-fluorophenyl}methyl)-1H-imidazole-5-carboxamide] | < 10 nM | < 10 nM | < 10 nM | < 10 nM |
| Cc1nc(Cl)c(C(=O)NCc2ccc(C(F)F)c(Oc3cc(Cl)cc(C#N)c3)c2F)[nH]1 [Example 254, 4-chloro-N-{[3-[(3-chloro-5-cyanophenyl)oxy]-4-(difluoromethyl)-2-fluorophenyl]methyl}-2-methyl-1H-imidazole-5-carboxamide] | < 10 nM | < 10 nM | < 10 nM | 10 to 1000 nM |
| C=CCc1cc(C#N)cc(Oc2c(Cl)ccc(CNC(=O)c3[nH]c(C)nc3Cl)c2F)c1 [Example 248, 4-chloro-N-[(4-chloro-3-{[3-cyano-5-(2-propen-1-yl)phenyl]oxy}-2-fluorophenyl)methyl]-2-methyl-1H-imidazole-5-carboxamide trifluoroacetate] | < 10 nM | < 10 nM | < 10 nM | < 10 nM |
| N#Cc1cc(Oc2c(Cl)ccc(CNC(=O)c3[nH]cnc3Br)c2F)cc(C(F)(F)F)c1 [Example 286, 4-bromo-N-[(4-chloro-3-{[3-cyano-5-(trifluoromethyl)phenyl]oxy}-2-fluorophenyl)methyl]-1H-imidazole-5-carboxamide] | < 10 nM | < 10 nM | < 10 nM | < 10 nM |
| Cc1nc(Cl)c(C(=O)NCc2ccc(Cl)c(Oc3cc(Br)cc(C#N)c3)c2F)[nH]1 [Example 299, N-({3-[(3-bromo-5-cyanophenyl)oxy]-4-chloro-2-fluorophenyl}methyl)-4-chloro-2-methyl-1H-imidazole-5-carboxamide] | < 10 nM | < 10 nM | < 10 nM | < 10 nM |
| N#Cc1cc(CN2CCOCC2)cc(Oc2c(Cl)ccc(CNC(=O)c3[nH]cnc3Cl)c2F)c1 [Example 383, 4-chloro-N-[(4-chloro-3-{[3-cyano-5-(4-morpholinylmethyl)phenyl]oxy}-2-fluorophenyl)methyl]-1H-imidazole-5-carboxamide] | < 10 nM | < 10 nM | < 10 nM | < 10 nM |
| N#Cc1cc(Br)cc(Oc2c(Cl)ccc(CNC(=O)c3[nH]cnc3Cl)c2F)c1 [Example 150, N-({3-[(3-bromo-5-cyanophenyl)oxy]-4-chloro-2-fluorophenyl}methyl)-4-chloro-1H-imidazole-5-carboxamide] | < 10 nM | < 10 nM | < 10 nM | < 10 nM |
| N#Cc1cc(Cl)cc(Oc2c(Br)ccc(CNC(=O)c3[nH]cnc3Cl)c2F)c1 [Example 378, N-({4-bromo-3-[(3-chloro-5-cyanophenyl)oxy]-2-fluorophenyl}methyl)-4-chloro-1H-imidazole-5-carboxamide] | < 10 nM | < 10 nM | < 10 nM | < 10 nM |
| CCc1ccc(CNC(=O)c2[nH]c(N)nc2Cl)c(F)c1Oc1cc(Cl)cc(C#N)c1 [Example 251, 2-amino-4-chloro-N-({3-[(3-chloro-5-cyanophenyl)oxy]-4-ethyl-2-fluorophenyl}methyl)-1H-imidazole-5-carboxamide] | < 10 nM | < 10 nM | < 10 nM | < 10 nM |
| Cc1nc(Cl)c(C(=O)NCc2cc(C#N)c(Cl)c(Oc3cc(Cl)cc(C#N)c3)c2F)[nH]1 [Example 304, 4-chloro-N-({4-chloro-3-[(3-chloro-5-cyanophenyl)oxy]-5-cyano-2-fluorophenyl}methyl)-2-methyl-1H-imidazole-5-carboxamide trifluoroacetate] | < 10 nM | < 10 nM | < 10 nM | < 10 nM |
| N#Cc1cc(Cl)cc(Oc2c(Br)ccc(CNC(=O)c3[nH]c(N)nc3Br)c2F)c1 [Example 237, 2-amino-4-bromo-N-({4-bromo-3-[(3-chloro-5-cyanophenyl)oxy]-2-fluorophenyl}methyl)-1H-imidazole-5-carboxamide trifluoroacetate] | < 10 nM | < 10 nM | < 10 nM | < 10 nM |
| N#Cc1cc(Cl)cc(Oc2c(C(F)F)ccc(CNC(=O)c3[nH]cnc3Cl)c2F)c1 [Example 252, 4-chloro-N-{[3-[(3-chloro-5-cyanophenyl)oxy]-4-(difluoromethyl)-2-fluorophenyl]methyl}-1H-imidazole-5-carboxamide] | < 10 nM | < 10 nM | < 10 nM | < 10 nM |
| N#Cc1cc(Oc2c(Cl)ccc(CNC(=O)c3[nH]cnc3Br)c2F)cc(C(F)F)c1 [Example 375, 4-bromo-N-[(4-chloro-3-{[3-cyano-5-(difluoromethyl)phenyl]oxy}-2-fluorophenyl)methyl]-1H-imidazole-5-carboxamide] | < 10 nM | < 10 nM | < 10 nM | < 10 nM |
| N#Cc1cc(Cl)cc(Oc2c(C(F)F)ccc(CNC(=O)c3[nH]c(N)nc3Cl)c2F)c1 [Example 253, 2-amino-4-chloro-N-{[3-[(3-chloro-5-cyanophenyl)oxy]-4-(difluoromethyl)-2-fluorophenyl]methyl}-1H-imidazole-5-carboxamide] | < 10 nM | < 10 nM | < 10 nM | < 10 nM |
| N#Cc1cc(Oc2c(Cl)ccc(CNC(=O)c3[nH]c(N)nc3Cl)c2F)cc(C(F)F)c1 [Example 327, 2-amino-4-chloro-N-[(4-chloro-3-{[3-cyano-5-(difluoromethyl)phenyl]oxy}-2-fluorophenyl)methyl]-1H-imidazole-5-carboxamide trifluoroacetate] | < 10 nM | < 10 nM | < 10 nM | < 10 nM |
| CCc1ccc(CNC(=O)c2[nH]c(C)nc2Cl)c(F)c1Oc1cc(Cl)cc(C#N)c1 [Example 249, 4-chloro-N-({3-[(3-chloro-5-cyanophenyl)oxy]-4-ethyl-2-fluorophenyl}methyl)-2-methyl-1H-imidazole-5-carboxamide] | < 10 nM | < 10 nM | < 10 nM | < 10 nM |
| N#Cc1cc(Cl)cc(Oc2c(Cl)ccc(CNC(=O)c3[nH]c(N)nc3Br)c2F)c1 [Example 235, 2-amino-4-bromo-N-({4-chloro-3-[(3-chloro-5-cyanophenyl)oxy]-2-fluorophenyl}methyl)-1H-imidazole-5-carboxamide trifluoroacetate] | < 10 nM | < 10 nM | < 10 nM | < 10 nM |
| C=Cc1cc(C#N)cc(Oc2c(Cl)ccc(CNC(=O)c3[nH]cnc3Cl)c2F)c1 [Example 143, 4-chloro-N-({4-chloro-3-[(3-cyano-5-ethenylphenyl)oxy]-2-fluorophenyl}methyl)-1H-imidazole-5-carboxamide] | < 10 nM | < 10 nM | < 10 nM | < 10 nM |
